Source: publication PMC4336329 (PLoS ONE, 2015)
Screen size: about 310,000 compounds; about 14,000 (4.5%) showed an effect of 50% or more. The effect is printed as a negative number. This is one part of the list.

Target: human ether-à-go-go-related gene (hERG) potassium channel (human, UniProt Q12809)
Assay: primary screen, population patch clamp on CHO cells stably expressing hERG
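Note: peak tail current of the secondary pulse compared with the same well before compound.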

Chain of human ether-à-go-go-related gene (hERG) potassium channel (Q12809 whole entry, looked up): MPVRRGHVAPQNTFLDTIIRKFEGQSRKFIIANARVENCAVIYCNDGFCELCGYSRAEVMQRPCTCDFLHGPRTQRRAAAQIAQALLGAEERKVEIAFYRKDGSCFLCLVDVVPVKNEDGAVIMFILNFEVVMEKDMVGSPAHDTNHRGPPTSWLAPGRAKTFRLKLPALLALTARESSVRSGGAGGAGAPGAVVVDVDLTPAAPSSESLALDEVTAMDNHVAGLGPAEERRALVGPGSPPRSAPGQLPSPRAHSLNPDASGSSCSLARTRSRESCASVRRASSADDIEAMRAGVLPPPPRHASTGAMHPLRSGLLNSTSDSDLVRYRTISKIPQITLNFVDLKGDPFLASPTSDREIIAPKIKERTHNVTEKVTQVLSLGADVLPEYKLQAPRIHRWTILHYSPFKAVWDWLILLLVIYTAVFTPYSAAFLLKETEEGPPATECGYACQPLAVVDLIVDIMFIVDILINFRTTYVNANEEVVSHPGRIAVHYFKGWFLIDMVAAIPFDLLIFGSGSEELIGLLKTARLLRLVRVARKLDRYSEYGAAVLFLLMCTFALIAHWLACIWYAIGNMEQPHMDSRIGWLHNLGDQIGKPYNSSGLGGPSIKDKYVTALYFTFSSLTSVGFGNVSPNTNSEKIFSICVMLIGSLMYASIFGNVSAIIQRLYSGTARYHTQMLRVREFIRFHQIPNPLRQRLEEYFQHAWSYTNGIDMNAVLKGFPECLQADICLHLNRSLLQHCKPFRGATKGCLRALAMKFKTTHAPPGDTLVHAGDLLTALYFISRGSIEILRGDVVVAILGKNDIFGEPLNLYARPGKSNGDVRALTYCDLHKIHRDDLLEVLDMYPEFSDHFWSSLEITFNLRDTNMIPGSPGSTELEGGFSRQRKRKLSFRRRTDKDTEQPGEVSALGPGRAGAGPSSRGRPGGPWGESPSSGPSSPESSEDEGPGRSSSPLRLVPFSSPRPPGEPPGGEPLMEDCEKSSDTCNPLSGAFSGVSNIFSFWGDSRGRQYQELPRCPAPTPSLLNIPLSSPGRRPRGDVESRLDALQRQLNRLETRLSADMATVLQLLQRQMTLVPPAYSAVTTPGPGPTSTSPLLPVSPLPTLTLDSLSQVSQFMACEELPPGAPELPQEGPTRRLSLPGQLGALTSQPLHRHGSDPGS

Compound | hERG current change (%, negative = inhibition) at 10uM
CCCCOc1ccc(NC(=O)CN2CCN(C(=O)OCC)CC2)cc1.Cl | -28.6%
Cn1c(NCc2cccc(Br)c2)nc2ccccc21 | -22.2%
Cc1ccc(NC(=O)CNC(=O)c2ccc(Br)o2)nc1 | -7.52%
O=C1NC(c2ccccc2)(C(F)(F)F)SC2=NCCCN12 (stereo not shown) | -0.213%
COc1ccc(NC(=O)C2CCN(S(C)(=O)=O)CC2)c(OC)c1 | 19.3%
Cc1nn(Cc2ccccc2)c(C)c1C(=O)N1CCN(CC(=O)Nc2ccc(F)cc2)CC1 | -62.6%
Cc1ccc(OCC(=O)N2CCN(C)CC2)c(Br)c1 | -7.32%
COc1ccccc1-c1noc(-c2ccccc2C(=O)N2CCOCC2)n1 | 0.765%
O=S(=O)(NCCc1nnc2ccc(SCc3cccnc3)nn12)c1ccccc1 | -2.63%
CCc1ccc(C2=NN(C(=O)OC)C(O)(C(F)(F)F)C2)cc1 (stereo not shown) | -7.41%
COc1ccc(CC(=O)Nc2ccc(S(=O)(=O)NCC3CCCO3)cc2)cc1 (stereo not shown) | 11.7%
O=C(COC(=O)c1ccccc1C(=O)c1ccccc1)NCc1ccc(F)cc1 | -34.9%
CCn1cc(C(=O)N2CCCC2)c(=O)c2cc(S(=O)(=O)N3CCC(C)CC3)ccc21 | 6.02%
COc1ccc(C(=O)NCCS(=O)(=O)NC2CCCC2)cc1 | 14.2%
O=C(O)CCCN1C(=O)c2ccc(Oc3cccc([N+](=O)[O-])c3)cc2C1=O | 17.6%
Cn1c(=O)c2c(ncn2CC(=O)OCC(=O)NCc2ccc(Cl)cc2)n(C)c1=O | -18.3%
O=C1CSC(=S)N1c1ccc(Cl)c(Cl)c1 | 20.7%
Nc1c(Cl)ncnc1N/N=C/c1ccc(O)cc1 | 12.2%
COc1ccc(CNC(=O)COC(=O)/C=C/c2ccc(Cl)cc2)cc1 | 4.95%
O=C(c1ccccc1NS(=O)(=O)c1ccc(Br)s1)N1CCCC1 | -7.15%
COc1ccc(C(=O)Nc2c(N)nc(SCC(=O)NCC3CCCO3)[nH]c2=O)cc1 (stereo not shown) | 2.79%
O=C(NCc1ccccc1)c1c(O)c2ccccc2[nH]c1=O | 15.4%

Compound | hERG current change (%, negative = inhibition) at 10uM
CCOC(=O)c1ccccc1NC(=O)COC(=O)c1c(CC)noc1C | 11.9%
CCCCNC(=S)N(Cc1c(C)noc1C)c1ccccc1 | -17.7%
CCOC(=O)C1=C(CC)OC(N)=C(C#N)C1c1ccc(F)cc1F (stereo not shown) | 5.77%
Cn1c(NC(=O)c2ccccc2F)cc(=O)n(C)c1=O | -0.469%
CC(NC(=O)c1ccccc1)c1ccc(F)cc1 (stereo not shown) | -18.9%
CCOC(=O)c1nnn(CC(=O)Nc2ccccc2)c1C(=O)OCC | 13.3%
COc1ccccc1OCc1ccc(C(=O)Nc2ccccc2)cc1 | 11.1%
O=C(Nc1ccc(Nc2ccccc2)cc1)c1ccc(Cl)cc1 | 2.48%
COc1ccccc1CNC(=O)CCS(=O)(=O)c1ccc(Cl)cc1 | -18.3%
c1ccc2cc(OCCN3CCCC3)ccc2c1 | -33.1%
Cn1c(CC(=O)Nc2ccccc2F)nnc1SCC(=O)NC1CCCCC1 | 7.48%
Nn1cnc2sc3c(c2c1=O)CCC3 | 2.29%
CC(=O)Nc1cccc(C(=O)N2CCN(S(=O)(=O)c3ccc4ccccc4c3)CC2)c1 | -14.4%
O=C(c1ccccc1)c1ccc(OCC(O)CNC2CCCc3ccccc32)cc1 (stereo not shown) | -31.7%
Cc1ccc(Oc2nc3ccccn3c(=O)c2/C=C(\C#N)C(=O)Nc2c(C)n(C)n(-c3ccccc3)c2=O)cc1 | -2.06%
CCOc1cc(/C=C2\N=C(SCC)SC2=O)cc([N+](=O)[O-])c1OC(C)=O | 3.2%
CCOc1cc(CNCCc2ccc(S(N)(=O)=O)cc2)ccc1OCC(=O)NC(C)(C)C.Cl | 4.8%
COc1ccc(CCN(C)Cc2nc(-c3cnccn3)no2)cc1OC | 19.9%
O=C(CSc1nnc(CNC(=O)c2c(F)cccc2Cl)o1)NC1CCCCC1 | 8.13%
O=C(O)CCC(=O)N(Cc1cccnc1)Cc1cccc(F)c1 | 6.65%
O=C(COc1ccc(NC(=O)c2ccccc2)cc1)c1ccccc1 | 20.3%
CCCCC(c1nnnn1CC1CCCO1)N1CCN(c2cccc(C)c2C)CC1.Cl (stereo not shown) | -4.53%

Compound | hERG current change (%, negative = inhibition) at 10uM
COC(=O)c1ccc(-c2nc(-c3ccc(Br)o3)no2)cc1 | 0.438%
COc1cc(-c2cc(C(=O)OCC(=O)Nc3ccc4c(c3)OCO4)c3ccccc3n2)cc(OC)c1OC | 1.4%
CCOc1cc(C(=S)N2CCOCC2)ccc1OC(=O)/C=C/c1ccc(OC)c(OC)c1 | 14.8%
Cc1ccc(NC(=O)CCCN2C(=O)c3cccc4cccc(c34)C2=O)cc1 | 5.46%
COc1ccc(OCc2ccc(C(=O)N3CCOCC3)cc2)cc1 | 2.13%
NC1=NC(=O)C2(COC(c3ccncc3)OC2)S1 (stereo not shown) | 12.9%
CCOC(=O)C1(CCCc2ccccc2)CCN(C(=O)c2ocnc2C)CC1 | -56.1%
N#CC1=C(N)Oc2c(ccc3ccccc23)C1c1ccsc1 (stereo not shown) | 17.5%
COc1ccc(NC(=O)Cc2nnc(SCC(=O)Nc3cc(C)ccc3OC)n2C)cc1 | -3.42%
CCCNC(=O)C1(CC2CC(c3ccccc3)=NO2)CCN(C(=O)CCCCCBr)CC1 (stereo not shown) | -50%
O=C(CCSCCc1ccccn1)Nc1c(F)c(F)c(F)c(F)c1F | -23.3%
CCOC(=O)c1ccccc1NC(=O)c1cn(-c2ccc(C)c(C)c2)c(=O)c2ccccc12 | -2.12%
COc1ccc(C(C)=O)cc1CSc1nnc(-c2ccncc2)n1C | 24.2%
O=C1NC(=S)N/C1=C/c1cc([N+](=O)[O-])ccc1O | 12.8%
O=C(CSc1ccc2nnc(CCNC(=O)c3ccccc3)n2n1)Nc1ccc(F)cc1F | -5.36%
CCN(CC)C(=O)C1CC(=O)OC1(C)C (stereo not shown) | -2.28%
O=C(NCC1CCCO1)c1nn2c(C(F)(F)F)cc(-c3cc(Br)cs3)nc2c1Br (stereo not shown) | 25.9%
CCn1ncc(Br)c1C(=O)NC1CCCCCCC1 | -11.5%
COc1ccc(OCCCC(=O)N2CCN(S(=O)(=O)c3cccc(F)c3)CC2)cc1 | -18.8%
Cc1[nH]c2ccccc2c1/C=N/NC(=O)c1cc(-c2ccccc2)n[nH]1 | 13.6%
CCN(CC(=O)Nc1ccc(N2CCOCC2)cc1)C(=O)COc1ccccc1OC | 9.22%
COc1ccc(OC)c(NC(=O)c2cnn(-c3ccccc3Cl)c2NC(=O)c2ccco2)c1 | -7.13%

Compound | hERG current change (%, negative = inhibition) at 10uM
COc1ccc(/C(O)=C2/C(=O)C(=O)N(CCCC(=O)O)C2c2ccc(OC)c(OC)c2)cc1 (stereo not shown) | 7.9%
COC(=O)c1ccc(CN(Cc2ccc(C(=O)OC)o2)C(C)(C)C)o1.Cl | -15.5%
N#Cc1c(NC(=O)CSc2nc3ccccc3c(=O)n2Cc2ccco2)sc2c1CCCC2 | 3.63%
CC/C(C)=C1\SC(N2CCN(c3cccc(C(F)(F)F)c3)CC2)=NC1=O | -7.91%
N#CC(C#N)=Cc1cnc(N2CCN(c3ccccc3)CC2)s1 | 23%
CCC(=O)NCCc1cc2cc(C)c(C)cc2[nH]c1=O | 7.14%
Cc1ccc(NC(=O)C2C3/C=C\CCCCC32)cc1C (stereo not shown) | 11.7%
COC(=O)n1c(=O)oc2cc(S(=O)(=O)N3CCCCC3)ccc21 | -4.03%
OC1CCCN(CC(O)COC(c2ccccc2)c2ccccc2)C1 (stereo not shown) | -18%
COc1ccc(Cn2nnnc2CN2CCCCCC2)cc1 | 15.1%
CCOC(=O)c1c(C)nn(-c2ccc(NC(=O)CSCC(=O)O)cc2)c1C | 10.8%
COC(=O)c1ccc(NC(=S)NCCCn2ccnc2)cc1 | 17.8%
c1ccc(N2CCN(Cc3nc4ccccc4[nH]3)CC2)nc1 | 9.64%
CNC(=S)N/N=C(\C)c1ccc2c(c1)OCCO2 | 9.21%
COCCn1cnc2cc(C)c(C)cc21 | 1.27%
C=CCNC(=S)Nc1ccc2nsnc2c1 | 1.87%
COc1cc2[nH]c(=O)n(CCCCCC(=O)NCCCN3CCOCC3)c(=O)c2cc1OC | -3.69%
CCOc1c(Nc2cccc(Cl)c2)c(=O)c1=O | -14.2%
Cc1ccc(S(=O)(=O)N2CCN(C(=O)CSc3cc(C)ccc3C)CC2)c(C)c1 | -3.08%
COc1ccc(-c2c(C#Cc3ccccc3)c3ccccc3n2C)cc1 | 23.5%
C/C(=N\NC(=O)CNC(=O)c1ccc2c(c1)OCO2)c1ccco1 | 0.404%
CC1(C)O[C@@H]2C[C@H]3[C@@H]4C[C@H](F)C5=CC(=O)CC[C@]5(C)[C@H]4[C@@H](O)C[C@]3(C)[C@]2(C(=O)CO)O1 | 10.3%
